The other results are listed elsewhere or left out. The full chains were built here from the parent and the listed change. Inactive controls read about 0.05.
B1: TEV protease; numbered along this chain (parent)
chain: MGESLFKGPRDYNPISSSICHLTNESDGHTTSLYGIGFGPFIITNKHLFRRNNGTLVVQSLHGVFKVKDTTTLQQHLVDGRDMIIIRMPKDFPPFPQKLKFREPQREERICLVTTNFQTKSMSSMVSDTSCTFPSGDGIFWKHWIQTKDGQCGSPLVSTRDGFIVGIHSASNFTNTNNYFTSVPKNFMELLTNQEAQQWVSGWRLNADSVLWGGHKVFMVKPEEPFQPVKEATQL

Variants of: B1
Assay: raw area under fraction-flipped curve 0-4 h after induction (AUC4h, not background-subtracted), DNA-recorder readout of cleavage of the substrate (dimensionless); higher = more cleavage of the substrate by the protease variant
Details: temperature: 34 °C; time window: 0-4 h after rhamnose induction
Procedure: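 In vivo DNA recorder in E. coli TOP10(DE3) ΔrhaA at 34 °C. Each TEVp single-site mutant (parent TEVp 0) is paired with a single-site variant of the 7-mer TEVs (canonical ENLYFQ|S). The substrate sits between flexible linkers in a Bxb1-sfGFP-TEVs-SsrA fusion, so cleavage stabilises Bxb1 and speeds flipping of a recombination array, read by NGS. The value is the raw area under the fraction-flipped curve over 0-4 h after rhamnose induction (AUC4h), with ≥20 reads per time point. It is not background-subtracted; inactive controls average about 0.047.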
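Further: Bxb1 expression induced with 0.2% (w/v) L-rhamnose at OD600 near 0.5, cultures sampled hourly, flipped fraction per protease–substrate barcode pair counted by paired-end Illumina sequencing.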

Variant	area with substrate ANLYFQS	area with substrate CNLYFQS	area with substrate DNLYFQS	area with substrate FNLYFQS	area with substrate GNLYFQS	area with substrate HNLYFQS	area with substrate INLYFQS	area with substrate KNLYFQS	area with substrate LNLYFQS	area with substrate MNLYFQS	area with substrate NNLYFQS	area with substrate PNLYFQS	area with substrate SNLYFQS	area with substrate TNLYFQS	area with substrate VNLYFQS	area with substrate WNLYFQS	area with substrate YNLYFQS	area with substrate RNLYFQS	area with substrate QNLYFQS
P14W	0.0591	0.0646	0.0737	0.0501	0.0367	0.0734	0.067	0.0597	0.0367	0.0691	0.0692	0.0741	0.0511	0.0639	0.0739	0.0581	0.0696	–	–
P14C	0.0524	0.0812	0.066	0.0667	0.0591	0.0607	0.0645	0.0648	0.0757	0.0716	0.0562	0.0593	0.0596	0.0624	0.0502	0.0556	0.0681	0.0715	–
C20R	0.0179	0.0257	0.0616	–	0.054	0.0399	–	0.0534	0.0542	–	0.0498	0.0457	0.0473	0.0472	0.043	0.0345	–	0.0336	–
C20F	0.0487	0.0648	0.1	0.068	–	0.0567	0.0521	0.0581	–	0.0549	0.0377	0.0644	0.0569	0.0448	0.0294	0.049	–	0.0477	–
C20M	0.109	0.0672	0.0467	–	0.0657	0.0677	0.0545	0.0732	0.0666	0.065	–	0.0638	0.0702	0.064	0.072	0.0603	0.0656	–	–
I19H	0.0744	0.0588	0.0514	0.0409	0.076	0.0483	0.044	–	0.0593	0.0542	0.0503	0.0535	0.0597	0.0718	0.0375	0.0477	0.0726	–	–
N13G	0.0566	0.0906	0.0712	–	0.0658	0.053	0.0565	0.0515	0.0653	0.0667	–	0.0676	0.0635	0.0592	0.0798	0.0577	0.0617	–	–
N13R	0.0687	0.0736	0.0806	–	–	0.0659	0.0759	–	0.0685	0.0661	0.0531	0.075	0.0605	0.0569	–	0.0594	0.0522	0.0553	–
N13K	0.0662	0.0565	0.0643	0.0547	0.059	0.0565	0.0463	0.0754	0.0646	–	0.0596	0.0764	0.0598	0.0768	0.0577	0.0557	–	–	–
I15S	0.0538	0.0624	0.0591	–	–	0.0469	–	0.0751	0.0542	–	0.0604	0.0506	–	–	0.103	0.0593	0.0518	0.0472	–
I15C	0.0601	0.0615	0.074	–	0.0573	0.069	0.054	0.066	0.0302	0.0713	0.0454	0.0643	0.0552	0.0655	0.0594	0.0513	0.0578	0.0595	–
S18K	0.0655	0.0553	0.0745	0.0528	0.0731	0.0555	–	0.0597	0.0718	–	0.0598	0.0681	–	0.0749	0.0609	0.0564	0.0563	0.0694	0.115
S18R	0.0828	0.0794	0.0802	0.0622	0.0566	0.0533	–	–	0.0658	0.0658	0.0707	0.0779	0.0556	0.0607	0.0643	0.0619	–	0.0727	0.086
Y12K	0.0385	0.0691	0.078	–	–	0.073	–	0.0614	–	–	0.0655	0.0681	0.0575	0.073	–	0.0551	0.032	0.0539	0.0585
Y12S	0.0625	0.0662	0.0699	–	0.0648	0.0608	0.0705	0.0061	0.0591	0.065	0.0558	0.0655	–	0.0692	0.0628	0.0635	0.0565	–	–
Y12H	0.0647	0.0851	0.0767	0.0534	–	0.0667	–	0.041	0.0703	0.0711	–	0.0611	0.0717	0.0809	–	0.0679	0.0756	0.0673	–
Y12W	0.0644	0.0614	0.0705	–	0.0693	0.0631	0.0525	0.0865	–	0.0645	0.0648	0.0795	0.0202	0.0732	0.0393	0.0669	0.0563	0.0633	0.0512
D11L	0.0576	0.0723	0.075	0.0603	0.0676	0.0623	0.0611	0.0717	0.0678	0.0497	0.0599	0.0634	0.0637	0.0685	0.0636	0.059	0.0641	0.0533	–
D11A	0.0697	0.0558	0.0852	–	0.0537	0.0598	0.0676	0.0745	0.0496	0.0659	0.067	0.0651	0.065	0.0621	–	0.0564	0.0712	0.072	–
D11S	0.079	0.0642	0.0763	0.0597	0.0662	0.0589	0.0714	0.0736	0.0772	0.0471	0.0709	0.0744	0.0899	0.0707	0.0739	–	–	–	–
D11Q	0.0573	0.0693	0.0777	0.0368	0.0688	0.0582	–	0.0711	0.0698	0.0573	0.0704	0.0629	–	0.0703	–	0.0585	0.0579	0.0324	–
G2M	0.0718	0.0655	0.0879	0.0513	–	–	–	0.0707	0.0785	–	–	0.0771	0.0752	0.054	–	0.052	–	–	–
H21D	0.0723	0.0585	0.0269	0.0548	0.0605	0.0573	–	0.0646	0.0518	0.0614	0.0516	0.0442	0.0631	0.0594	0.0634	–	0.0547	–	0.0451

Source: the supplement of paper PMC12217912
